Consider 74 sequences from paper PMC5892938.

This is one part of the list. At the low end of the ranking the order means little.

The target in the test is GST-SBP-SLBP (stem-loop binding protein) (UniProt Q14493). The experiment in a line: targeted RNA Bind-n-Seq.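 Further: DESeq read counts versus GST-SBP nonspecific binding control pulldown.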 The conditions noted are these: RBNS binding buffer: 25 mM Tris pH 7.5, 150 mM KCl, 3 mM MgCl2, 0.1% Tween, 0.5 mg/mL BSA, 1 mM DTT; 27 nM protein, 750 pM RNA pool; temperature not stated; high values mean tight binding.
For the sequence “GGUCACGUCUCAAUCAACUCUAUCUCAGGAGUUUUCUCCUGCUUUGUCAACAGCUCGCAGUCAAG”, the binding signal (log2 fold change) is 0.16. The result for “GGUCACGUCUCAAUCAACUCAUCUCCAGGAGUUUACUCCUGUAUUUUCAACAGCUCGCAGUCAAG” reads -0.131. The result for “GGUCACGUCUCAAUCAACUCACUAGAGGGGGGGAAAACCCCUUUACCCUCAUCCUCAACAGCUCGCAGUCAAG” reads -0.597; that for “GGUCACGUCUCAAUCAACUCAACUUCCAGGGAAAUCCCUGGCUUUCUCAACAGCUCGCAGUCAAG”, -0.259; that for “GGUCACGUCUCAAUCAACUCCCUAGAGGGGGGGAAAACCCCUUUACCCUCAACUUCAACAGCUCGCAGUCAAG”, 0.159.

With “GGUCACGUCUCAAUCAACUCAUCUUCAGGAGUUUACUCCUGUAUUUUCAACAGCUCGCAGUCAAG”, the binding signal (log2 fold change) was 0.0512. Turning to “GGUCACGUCUCAAUCAACUCUUCCUCCAGGGAAAACCCUGGUUAAUUCAACAGCUCGCAGUCAAG”, the binding signal (log2 fold change) worked out at 0.0786. Under “GGUCACGUCUCAAUCAACUCUACUCCCAGGGAAAACCCUGGCAAACUCAACAGCUCGCAGUCAAG” stands -0.242. Under “GGUCACGUCUCAAUCAACUCUAUCUCCAGGGAAACCCCUGGUUUAUUCAACAGCUCGCAGUCAAG” stands -0.173; under “GGUCACGUCUCAAUCAACUCUUCUUCAGGAGUUUCCUCCUGUUUAUUCAACAGCUCGCAGUCAAG”, -0.136; under “GGUCACGUCUCAAUCAACUCUACUUCAGGAGUUUCCUCCUGCUUACUCAACAGCUCGCAGUCAAG”, 0.159. The result for “GGUCACGUCUCAAUCAACUCCUAAGAGGGGGGGAAAACCCCUUUACCCUCCGCAUCAACAGCUCGCAGUCAAG” reads 0.313; that for “GGUCACGUCUCAAUCAACUCAAAUGAGGGGGGGAAAACCCCUUUACCCUCCAAAUCAACAGCUCGCAGUCAAG”, -0.28. For “GGUCACGUCUCAAUCAACUCUUCUUCCAGGGAAAUCCCUGGUUUUCUCAACAGCUCGCAGUCAAG”, the binding signal (log2 fold change) was -0.0538. Under “GGUCACGUCUCAAUCAACUCUAUCUCCAGGGAAACCCCUGGUAAUUUCAACAGCUCGCAGUCAAG” stands -0.175; under “GGUCACGUCUCAAUCAACUCUACUCCCAGGGAAACCCCUGGCAAUGUCAACAGCUCGCAGUCAAG”, -0.0879; under “GGUCACGUCUCAAUCAACUCAUCCCCCAGGGAAAACCCUGGCUAAUUCAACAGCUCGCAGUCAAG”, 0.0372. The result for “GGUCACGUCUCAAUCAACUCUUUAGAGGGGGGGAAAACCCCUUUACCCUCAAAUUCAACAGCUCGCAGUCAAG” reads -0.1; that for “GGUCACGUCUCAAUCAACUCAAUUUCAGGAGUUUCCUCCUGCAUAUUCAACAGCUCGCAGUCAAG”, 0.00152; that for “GGUCACGUCUCAAUCAACUCGUCUUCAGGAGUUUACUCCUGCUAAUUCAACAGCUCGCAGUCAAG”, -0.108. The result for “GGUCACGUCUCAAUCAACUCCAUGGAGGGGGGGAAAACCCCUUUACCCUCAAUCUCAACAGCUCGCAGUCAAG” reads -0.284; that for “GGUCACGUCUCAAUCAACUCUACUUCCAGGGAAACCCCUGGCUAUGUCAACAGCUCGCAGUCAAG”, 0.0561; that for “GGUCACGUCUCAAUCAACUCAUCGUCAGGAGUUUACUCCUGCAAAUUCAACAGCUCGCAGUCAAG”, 0.0232. As for “GGUCACGUCUCAAUCAACUCAAAAGAGGGGGGGAAAACCCCUUUGCCCUCAACCUCAACAGCUCGCAGUCAAG”, the binding signal (log2 fold change) was -0.355. “GGUCACGUCUCAAUCAACUCUUUUCCCAGGGAAAGCCCUGGCUAAUUCAACAGCUCGCAGUCAAG”: the binding signal (log2 fold change) came out at 0.00424. Under “GGUCACGUCUCAAUCAACUCAUCCCCCAGGGAAAGCCCUGGCUAUCUCAACAGCUCGCAGUCAAG” stands -0.118; under “GGUCACGUCUCAAUCAACUCAACGGCAGGAGUUUUCUCCUGGAAUUUCAACAGCUCGCAGUCAAG”, 0.0757.

For “GGUCACGUCUCAAUCAACUCUAUCCCCAGGGAAACCCCUGGCAAAUUCAACAGCUCGCAGUCAAG”, the binding signal (log2 fold change) stood at 0.0448. The result for “GGUCACGUCUCAAUCAACUCAUCGUCCAGGGAAACCCCUGGCUAUUUCAACAGCUCGCAGUCAAG” reads -0.0812. Under “GGUCACGUCUCAAUCAACUCAUUCCCCAGGGAAAGCCCUGGCAUUCUCAACAGCUCGCAGUCAAG” stands 0.112; under “GGUCACGUCUCAAUCAACUCAAUCUCCAGGGAAACCCCUGGCAAACUCAACAGCUCGCAGUCAAG”, -0.00103. The result for “GGUCACGUCUCAAUCAACUCCUUAGAGGGGGGGAAAACCCCUUUACCCUCAUCCUCAACAGCUCGCAGUCAAG” reads 0.0591; that for “GGUCACGUCUCAAUCAACUCUACUUCAGGAGUUUUCUCCUGUAAUUUCAACAGCUCGCAGUCAAG”, 0.0138; that for “GGUCACGUCUCAAUCAACUCCGCAGAGGGGGGGAAAACCCCUUUACCCUCCACAUCAACAGCUCGCAGUCAAG”, 0.00824. In the case of “GGUCACGUCUCAAUCAACUCUUCUCCCAGGGAAACCCCUGGCAUUUUCAACAGCUCGCAGUCAAG”, the binding signal (log2 fold change) was -0.0695. The result for “GGUCACGUCUCAAUCAACUCAACUUCCAGGGAAAACCCUGGUAUACUCAACAGCUCGCAGUCAAG” reads 0.373; that for “GGUCACGUCUCAAUCAACUCCAAAGAGGGGGGGAAAACCCCUUUACCCUCAAUCUCAACAGCUCGCAGUCAAG”, 0.159; that for “GGUCACGUCUCAAUCAACUCUAGUCCAGGAGUUUUCUCCUGUAAUUUCAACAGCUCGCAGUCAAG”, -0.187. For the sequence “GGUCACGUCUCAAUCAACUCAAUUUCCAGGGAAAGCCCUGGUAUUUUCAACAGCUCGCAGUCAAG”, the binding signal (log2 fold change) worked out at 0.121. Under “GGUCACGUCUCAAUCAACUCUUCUUCAGGAGUUUACUCCUGCAAUUUCAACAGCUCGCAGUCAAG” stands 0.057; under “GGUCACGUCUCAAUCAACUCUUUCCCAGGAGUUUUCUCCUGCAAAUUCAACAGCUCGCAGUCAAG”, 0.0902. “GGUCACGUCUCAAUCAACUCUUCCCCAGGAGUUUACUCCUGCAUUUUCAACAGCUCGCAGUCAAG”: the binding signal (log2 fold change) was determined as 0.302. The result for “GGUCACGUCUCAAUCAACUCAAAAGAGGGGGGGAAAACCCCUUUGCCCUCACAUUCAACAGCUCGCAGUCAAG” reads 0.12; that for “GGUCACGUCUCAAUCAACUCUACUUCCAGGGAAAGCCCUGGCUUAUUCAACAGCUCGCAGUCAAG”, 0.183. Under “GGUCACGUCUCAAUCAACUCAUUCGCAGGAGUUUCCUCCUGGUUUUUCAACAGCUCGCAGUCAAG” stands 0.154; under “GGUCACGUCUCAAUCAACUCAUUUCCCAGGGAAACCCCUGGUAUAUUCAACAGCUCGCAGUCAAG”, -0.2; under “GGUCACGUCUCAAUCAACUCUUCUCCCAGGGAAAACCCUGGCAAAUUCAACAGCUCGCAGUCAAG”, 0.0508.

For the sequence “GGUCACGUCUCAAUCAACUCUUUCCCCAGGGAAAUCCCUGGCUAAUUCAACAGCUCGCAGUCAAG”, the binding signal (log2 fold change) was -0.242.

Turning to “GGUCACGUCUCAAUCAACUCUUUCCCCAGGGAAACCCCUGGUAUAUUCAACAGCUCGCAGUCAAG”, the binding signal (log2 fold change) was -0.362. Under “GGUCACGUCUCAAUCAACUCUUCUUCCAGGGAAAGCCCUGGCAUUCUCAACAGCUCGCAGUCAAG” stands -0.0527; under “GGUCACGUCUCAAUCAACUCAAUCUCAGGAGUUUCCUCCUGCUUUUUCAACAGCUCGCAGUCAAG”, 0.123; under “GGUCACGUCUCAAUCAACUCAUCUCCCAGGGAAACCCCUGGCUAACUCAACAGCUCGCAGUCAAG”, 0.0359. The result for “GGUCACGUCUCAAUCAACUCAUCCUCCAGGGAAAACCCUGGUAUUUUCAACAGCUCGCAGUCAAG” reads 0.0465. Under “GGUCACGUCUCAAUCAACUCAACUUCAGGAGUUUGCUCCUGCAAUGUCAACAGCUCGCAGUCAAG” stands -0.0505; under “GGUCACGUCUCAAUCAACUCAAUCUCCAGGGAAACCCCUGGCUAAUUCAACAGCUCGCAGUCAAG”, 0.0229. In the case of “GGUCACGUCUCAAUCAACUCUUCUUCAGGAGUUUUCUCCUGCUUUCUCAACAGCUCGCAGUCAAG”, the binding signal (log2 fold change) was 0.111.

With “GGUCACGUCUCAAUCAACUCCUAGGAGGGGGGGAAAACCCCUUUACCCUCAUUAUCAACAGCUCGCAGUCAAG”, the binding signal (log2 fold change) was -0.094. The result for “GGUCACGUCUCAAUCAACUCUACUCCCAGGGAAAUCCCUGGUAUAUUCAACAGCUCGCAGUCAAG” reads 0.275. Under “GGUCACGUCUCAAUCAACUCUAAAGAGGGGGGGAAAACCCCUUUACCCUCACAAUCAACAGCUCGCAGUCAAG” stands -0.654; under “GGUCACGUCUCAAUCAACUCCUUGGAGGGGGGGAAAACCCCUUUACCCUCAAUUUCAACAGCUCGCAGUCAAG”, -0.0826; under “GGUCACGUCUCAAUCAACUCACACGAGGGGGGGAAAACCCCUUUGCCCUCAAUUUCAACAGCUCGCAGUCAAG”, -0.115.

As to “GGUCACGUCUCAAUCAACUCCCUAGAGGGGGGGAAAACCCCUUUACCCUCCAAAUCAACAGCUCGCAGUCAAG”, the binding signal (log2 fold change) was -0.14. The result for “GGUCACGUCUCAAUCAACUCAAUGUCCAGGGAAAGCCCUGGUUUUUUCAACAGCUCGCAGUCAAG” reads -0.133. The result for “GGUCACGUCUCAAUCAACUCAUUCUCAGGAGUUUUCUCCUGUAAUUUCAACAGCUCGCAGUCAAG” reads -0.00631; that for “GGUCACGUCUCAAUCAACUCAUUAGAGGGGGGGAAAACCCCUUUGCCCUCACCUUCAACAGCUCGCAGUCAAG”, 0.303. Under “GGUCACGUCUCAAUCAACUCAUCUCCAGGAGUUUUCUCCUGUUUACUCAACAGCUCGCAGUCAAG” stands -0.0794; under “GGUCACGUCUCAAUCAACUCAUUUUCCAGGGAAAACCCUGGUAUAUUCAACAGCUCGCAGUCAAG”, -0.0333; under “GGUCACGUCUCAAUCAACUCUUUUCCCAGGGAAAUCCCUGGUUAACUCAACAGCUCGCAGUCAAG”, -0.314.

Regarding “GGUCACGUCUCAAUCAACUCUAUCCCCAGGGAAAACCCUGGCUAACUCAACAGCUCGCAGUCAAG”, the binding signal (log2 fold change) is -0.187. Under “GGUCACGUCUCAAUCAACUCUUCUUCCAGGGAAACCCCUGGCUUACUCAACAGCUCGCAGUCAAG” stands 0.186; under “GGUCACGUCUCAAUCAACUCUACUCCAGGAGUUUUCUCCUGUAUACUCAACAGCUCGCAGUCAAG”, 0.0708; under “GGUCACGUCUCAAUCAACUCAUCCUCCAGGGAAAGCCCUGGUUAAUUCAACAGCUCGCAGUCAAG”, 0.0189. The result for “GGUCACGUCUCAAUCAACUCAUCGUCAGGAGUUUUCUCCUGCUAUCUCAACAGCUCGCAGUCAAG” reads 0.0236.

“GGUCACGUCUCAAUCAACUCUUCCUCCAGGGAAACCCCUGGCUUACUCAACAGCUCGCAGUCAAG”: the binding signal (log2 fold change) came to 0.144.
